According to article PMC4336329 (PLoS ONE, 2015):
The whole screen tested about 310,000 compounds, of which about 14,000 (4.5%) showed an effect of 50% or more. The effect is printed as a negative number. Some of the results follow. Where a SMILES comes first, the peptide text is derived from it. [ ]: non-standard residue; d: D form. The star is where a group is joined. Tic = O=C(O)[C@@H]1Cc2ccccc2CN1; NHPr = CCCN*

Target: human ether-à-go-go-related gene (hERG) potassium channel (human, UniProt Q12809)
Assay: primary screen, population patch clamp on CHO cells stably expressing hERG
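Also: peak tail current of the secondary pulse compared with the same well before compound.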

human ether-à-go-go-related gene (hERG) potassium channel, sequence (Q12809 whole entry, looked up): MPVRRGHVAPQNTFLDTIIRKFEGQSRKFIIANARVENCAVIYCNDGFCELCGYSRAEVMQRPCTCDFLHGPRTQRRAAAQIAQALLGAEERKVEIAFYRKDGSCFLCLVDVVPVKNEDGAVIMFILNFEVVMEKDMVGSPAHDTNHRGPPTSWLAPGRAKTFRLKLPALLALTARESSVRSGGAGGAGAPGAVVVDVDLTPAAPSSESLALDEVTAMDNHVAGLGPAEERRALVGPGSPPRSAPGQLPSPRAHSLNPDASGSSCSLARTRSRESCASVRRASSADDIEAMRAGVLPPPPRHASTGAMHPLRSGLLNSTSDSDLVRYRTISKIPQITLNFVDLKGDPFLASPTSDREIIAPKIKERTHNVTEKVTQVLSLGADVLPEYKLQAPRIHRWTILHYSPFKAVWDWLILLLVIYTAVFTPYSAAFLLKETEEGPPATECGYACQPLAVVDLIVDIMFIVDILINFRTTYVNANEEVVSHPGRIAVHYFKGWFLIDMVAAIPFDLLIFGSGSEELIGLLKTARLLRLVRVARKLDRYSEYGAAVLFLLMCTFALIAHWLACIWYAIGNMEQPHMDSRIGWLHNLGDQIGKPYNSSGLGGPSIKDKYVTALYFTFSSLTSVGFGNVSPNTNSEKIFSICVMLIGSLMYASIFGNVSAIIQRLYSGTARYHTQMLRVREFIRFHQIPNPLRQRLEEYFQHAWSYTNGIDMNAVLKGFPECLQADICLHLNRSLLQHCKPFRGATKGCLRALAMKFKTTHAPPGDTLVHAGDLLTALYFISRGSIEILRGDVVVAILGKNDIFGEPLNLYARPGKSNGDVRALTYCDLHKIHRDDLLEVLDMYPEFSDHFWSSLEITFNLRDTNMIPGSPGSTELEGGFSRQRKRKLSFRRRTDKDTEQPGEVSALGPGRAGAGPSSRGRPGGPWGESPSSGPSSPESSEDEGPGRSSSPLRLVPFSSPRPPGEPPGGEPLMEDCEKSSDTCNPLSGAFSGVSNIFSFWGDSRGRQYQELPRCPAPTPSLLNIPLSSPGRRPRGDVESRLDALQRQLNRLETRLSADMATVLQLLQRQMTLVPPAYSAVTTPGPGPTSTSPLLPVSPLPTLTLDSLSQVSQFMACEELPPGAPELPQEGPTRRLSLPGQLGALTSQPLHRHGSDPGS

Row | SMILES | hERG current change (%, negative = inhibition) at 10uM [%]
1 | COc1cccc(/C=C2/NC(=O)NC2=O)c1OCC(=O)Nc1ccccc1 | 17.3
2 | CCC(=O)Nc1nc2ccc3sc(C)nc3c2s1 | 3.22
3 | CCCNC(=O)[C@@H]1CCCN1C(=O)[C@@H]1Cc2ccccc2CN1.Cl (H-[Tic]-Pro-NHPr) | 10.9
4 | CCCn1c(=O)n(C)c(=O)c2c(SC(C)C(=O)NCC3CCCO3)nc(CC(C)C)nc21 (centres unmarked) | 9.18
5 | CCCCCC(=O)Nc1cc(S(=O)(=O)N2CCCCC2)ccc1N1CCOCC1 | -12.6
6 | Cc1cc(Br)ccc1NC(=O)CN1CCN(c2ccccn2)CC1 | -71.5
7 | CCc1cc2c(SCc3nc4sc(C(C)=O)c(C)c4c(=O)[nH]3)ncnc2s1 | 16.8
8 | CCOC(=O)C(C)Sc1nnc(-c2ccccc2O)n1-c1ccc(C)cc1 (centres unmarked) | -4.83
9 | Cc1ccc(/C=C2\OC(=O)c3ccccc32)cc1 | 14.9
10 | Cc1ccc(C)c(S(=O)(=O)N2CCN(C(=O)CCc3c[nH]c4ccccc34)CC2)c1 | -35.4
11 | COc1ccc(/C=N/O)cc1COc1ccc(NC(C)=O)cc1 | -16.7
12 | C/C(=N/NC(=O)CNc1ccc(C)cc1)c1ccc(Cl)cc1 | 6.28
13 | CCC(C)NC(=O)CCn1c(=O)c2cccn2c2ccc(F)cc21 (centres unmarked) | 3.96
14 | COc1cnn(-c2ccccc2)c(=O)c1SCc1ccc(Cl)cc1Cl | -21.4
15 | COCCn1c(Cc2ccccc2)nnc1SCC(=O)N1CCCC1=O | 6.8
16 | CCOc1ccccc1C(=O)NCC(=O)OCc1c(C)noc1C | 4.77
17 | CCOC(=O)c1ccccc1NC(=O)COC | -8.07
18 | COC(=O)[C@@]12CCCCN1[C@H](c1ccc(SC3CCCCC3)cc1)[C@@H]1C(=O)N(C)C(=O)[C@@H]12.O=C(O)C(F)(F)F | 15.2
19 | Cc1nc2ccc(S(=O)(=O)c3ccc4nc(C)[nH]c4c3)cc2[nH]1 | 31.4
20 | CN(CCc1ccccc1)C1CCCN(S(=O)(=O)N(C)C)C1 (centres unmarked) | -15.7
21 | COc1cc(/C=C2/C(C)=C(C#N)c3nc(N)c(C#N)c(C)c32)ccc1OCC(=O)O | 15.2
22 | CC(O)/C=C/C1OC(=O)CC1Nc1ccc(C=O)cc1 (centres unmarked) | 3.72
23 | OC1C2CN3CCN(C2)CC1(Cc1ccccc1)C3 (centres unmarked) | -0.552

Row | SMILES | hERG current change (%, negative = inhibition) at 10uM [%]
24 | Br.COc1c2c(cc3c1OCO3)CCN(C)C2 | 0.899
25 | O=C(Cc1ccccc1)NCC(=O)OCC(=O)c1cccs1 | -12.3
26 | Cc1nn(-c2ccc([N+](=O)[O-])cc2)c2c1C(c1cccc(Br)c1)N1C(=N2)C(=O)Nc2ccccc21 (centres unmarked) | 2.1
27 | O=C(CSc1nnc(Nc2ccccc2)s1)Nc1cccc(S(=O)(=O)N2CCCCC2)c1 | -0.847
28 | C=CC(C)(C)O[C@@H]1O[C@H](CO)[C@@H](O)[C@H](O)[C@H]1O | 40.6
29 | CC(OC(=O)c1cc2sccc2n1C)C(=O)NCc1cccs1 (centres unmarked) | -7.34
30 | Cc1nnc(NC(=O)CSc2ccccn2)s1 | 1.51
31 | CCOc1cccc(-c2cc(C(=O)N/N=C/c3ccc(OC)c(CN4CCOCC4)c3)c3ccccc3n2)c1 | 12.9
32 | COc1ccc(OC)c(CN2CCC(N3CCC(C(=O)NC4CC4)CC3)CC2)c1 | -11.1
33 | O=C(CCCn1c(=O)[nH]c2cc(Cl)ccc2c1=O)NCC1CCCO1 (centres unmarked) | -1.69
34 | Oc1cc2c(cc1CN1CCN(c3ncccn3)CC1)OCO2 | 19.1
35 | O=C(NCCSc1ncc(-c2ccccc2)[nH]1)c1ccco1 | -13.6
36 | O=C(O)c1ccc(S(=O)(=O)N(CCc2ccccc2)Cc2ccc(Cl)cc2)cc1 | 14.4
37 | Nc1cc(S(=O)(=O)N2CCCCC2)ccc1Oc1ccccc1 | -10.3
38 | COCCOC(=O)C1=C(C)N(Cc2ccccc2)C(=O)NC1c1cccc(OC)c1OC (centres unmarked) | -21.3
39 | Cn1cccc1/C=N/NC(=O)c1ccco1 | 6.83
40 | C/C(CC(=O)Nc1ccc2ccccc2c1)=N\NC(=O)c1ccc(O)c(O)c1 | -6.73
41 | O=C(Nc1scc(-c2ccccc2)c1C(=O)O)c1ccccc1F | 17.3
42 | Cc1cc(C(=O)OCC(=O)N2CCCCCC2)ccc1[N+](=O)[O-] | -3.13
43 | C=CCN=C1NN=C(c2cc(C)n(CCOC)c2C)CS1.Cl | -16
44 | CNC(=S)Nc1cc(C(F)(F)F)ccc1Cl | -17.5
45 | COc1ccccc1/C=C/C=C1N=C(/C=C/c2ccc(Cl)cc2)OC/1=O | -1.07
46 | Cc1cccc(Cn2c(=O)n(-c3ccc(CC(=O)NCc4ccco4)cc3)c(=O)c3sccc32)c1 | 0.339

Row | SMILES | hERG current change (%, negative = inhibition) at 10uM [%]
47 | Cc1ccnc2nc(C(=O)OCCOc3cccc(Br)c3)nn12 | -27.9
48 | CC(C(=O)NCC(=O)Nc1ccc(F)c(F)c1F)N1CCN(Cc2ccc(C#N)cc2)CC1 (centres unmarked) | -61
49 | O=C(Nc1ccc(-c2nc3ccccc3s2)cc1)C1=COCCO1 | 22.2
50 | Cc1ccc(/C=N/n2nnnc2N)cc1[N+](=O)[O-] | 6.16
51 | COc1cccc(CNC(=O)Cn2cccc2)c1 | -1.98
52 | COc1ccc(NC(=O)C(C)NS(=O)(=O)c2ccccc2)cc1Cl (centres unmarked) | -18.9
53 | Br.Clc1ccc(C2=CSC3=NCCN23)cc1Cl | -48.2
54 | Cc1cc(NC(=O)COC(=O)[C@H](Cc2c[nH]c3ccccc23)NC(=O)c2ccc(F)cc2)no1 | -16.1
55 | COc1ccc(C2SCC(=O)Nc3c2c(=O)[nH]n3C2CCCCCC2)cc1 (centres unmarked) | 2
56 | CN(C)c1cccc(C(=O)Nc2cccc(F)c2)c1 | 5.67
57 | COc1ccc(NC2c3ncccc3C(=O)N2Cc2ccccc2)c(OC)c1 (centres unmarked) | -10.4
58 | COc1cccc(/C=N/NC(=O)Cn2ccnc2C)c1 | -16.7
59 | CCC(=O)N1CCn2c1nc1ccccc12 | 10.1
60 | COc1cc(-c2nc(C(F)(F)F)c(OC)o2)cc(OC)c1OC | 8.27
61 | COc1ccc(C2CC(c3ccco3)n3ncnc3N2)cc1 (centres unmarked) | -15.6
62 | O=C(COC(=O)c1cnc(Cl)c(Cl)c1)NCc1ccc2c(c1)OCO2 | 16.4
63 | COc1ccccc1OCc1ccc(C(=O)N2CCOCC2)o1 | 1.95
64 | COc1ccc(Cl)cc1NC(=O)CC(C)=O | 5.08
65 | COCCN(CC(=O)Nc1ccccc1C(F)(F)F)C(=O)/C=C/c1ccc2ccccc2n1 | -17.6
66 | Cc1ccc(S(=O)(=O)N2CCCCC2)cc1C(=O)NC1CCCCC1 | 17.8
67 | COc1ccc(Br)cc1CNc1ccc(O)cc1 | -4.69
68 | CCN1CCN(c2ccc(NC(=O)COc3ccc([N+](=O)[O-])cc3)cc2)CC1 | -54.3
69 | O=C1Cc2ccccc2Sc2ccccc21 | 1.13

Row | SMILES | hERG current change (%, negative = inhibition) at 10uM [%]
70 | COc1ccc(C2Nc3ccccc3C(=O)N2c2ccc(C)cc2)cc1Cn1cc([N+](=O)[O-])cn1 (centres unmarked) | 0.322
71 | O=C(/C=C/Nc1ccc(F)cc1F)c1ccco1 | -2.25
72 | Cc1ccnc(NCc2cccc3ccccc23)c1.Cl | 14
73 | Cc1ccc(N(C(=O)Nc2ccccc2)C2=NCCC2)cc1 | 10.8
74 | O=C(CCS(=O)(=O)c1ccc(Cl)cc1)N1CCN(c2ccc(F)cc2)CC1 | -76.1
75 | CC(C)(C)C(=O)NC1CCN(S(=O)(=O)c2cccc(C(F)(F)F)c2)CC1 | -15.7
76 | Cc1nn(-c2ccccc2)c(N2CCCC2)c1/C=N/NC(=S)Nc1ccccc1F | 3.38
77 | CC1=NN(c2ccccc2)C(=O)C1C=Nc1ccc(N(C)C)cc1 (centres unmarked) | 19.4
78 | Cc1ccc(NC(=O)CSc2nnc(C)c(=O)n2N)cc1Cl | -9.11
79 | COc1ccc(CCNC(=O)c2c(O)c3ccccc3[nH]c2=O)cc1 | 15.4
80 | O=C(CCNC(=O)Cn1cnc2ccccc2c1=O)NCCC1=CCCCC1 | 13.2
81 | Cc1[nH]c2ccccc2c1/C=N/NC(=O)Nc1ccccc1 | 21.5
82 | C1CCN(C2CCN(c3nc4nonc4nc3N3CCSCC3)CC2)C1 | -18
83 | CSc1nnc(NC(=O)c2cccc(S(=O)(=O)N3CCOCC3)c2)s1 | -5
84 | CC(=O)Nc1ccc(S(=O)(=O)NC2CC(=O)N(c3ccc4c(c3)OCCO4)C2)cc1 (centres unmarked) | 6.77
85 | c1ccc2c(Nc3nc(-c4ccncc4)nc4ccccc34)cccc2c1 | 20.1
86 | CCOC(=O)c1c(NC(=O)COC(=O)Cn2c(C)nc3ccccc32)sc2c1CCCC2 | 11.1
87 | COc1ccc(CNC(=O)C2CC(=O)N(C3CCCC3)C2)cc1 (centres unmarked) | -8.14
88 | CCc1ccc(NC(=O)N(CCCN2CCOCC2)Cc2cccs2)cc1 | -52.8
89 | Cc1ccc(NC(=O)C(C)OC(=O)CCN=C2NS(=O)(=O)c3ccccc32)cc1 (centres unmarked) | 0.785
